# Measured values taken from PubChem BioAssay AID463173 (ICCB-Longwood Screening Facility, Harvard Medical School, 2010).
# Out of some 52,000 compounds screened, about 4,300 (8.3%) were called active. No stated cut-off is given here; in the data, active means survival mostly below about 52% (no sharp cut-off); inactive means mostly above about 56%. Some of the results follow.
# Tested on: DeltatarO mutant
# Test: S. aureus survival, RN4220 and DeltatarO strains – OD600, teichoic acid synthesis inhibitors, primary screen (AID 463173)
# Conditions: S. aureus RN4220 wild type/DeltatarO growth, OD600, 18 h, stronger effect = lower value, screened at 18.75 µg/mL (by protocol)
row,SMILES,survival
1,COc1ccc(CC(NC(C)=O)C(=O)N2CCN(C(=O)Nc3ccc(C#N)cc3)CC2)cc1 (stereo not given),inactive: 99%
2,Cc1ccc2c(c1)cc(CN(Cc1ccco1)S(=O)(=O)c1ccccc1)c1nnnn12,inactive: 98%
3,O=C(/C=C\c1ccccc1)NC1CC(=O)N(c2ccccc2)C1 (stereo not given),inactive: 124%
4,Cc1cc(C)c2c(n1)sc1c(=O)n(-c3cc(Cl)ccc3C)nnc12,inactive: 84%
5,Cc1cccc2sc(N(CCCN(C)C)C(=O)COc3ccccc3)nc12,inactive: 109%
6,CCNc1ncnc2c1oc1ccccc12,inactive: 97%
7,COC(=O)c1ccccc1NC(=O)Cn1c(=O)n(-c2cccc(C(F)(F)F)c2)c(=O)c2c(C)c(C)sc21,inactive: 66%
8,COCCCNC(=O)c1ccc(Cn2c(SCc3cccc(C)c3)nc3cccnc32)cc1,inactive: 87%
9,Cc1ccc(C)c(N2CCN(C(=O)c3cc(S(=O)(=O)N4CCCCCC4)cn3C)CC2)c1,inactive: 91%
10,Cc1ccc(S(=O)(=O)NCC2CCC(C(=O)NCCc3ccc(Cl)cc3)CC2)cc1 (stereo not given),inactive: 89%
11,CCN(CC)S(=O)(=O)c1ccc2oc(C(=O)NCc3ccccc3OC)c(C)c2c1,inactive: 71%
12,CCOc1ccc(N(CC)S(=O)(=O)N2CCCC(C(=O)NCCc3ccc(OC)cc3)C2)cc1 (stereo not given),inactive: 71%
13,O=S(=O)(CCn1cccc1)CCn1cccc1,inactive: 71%
14,CCOCCCN(Cc1ccco1)C(=O)c1cc2c(=O)[nH]c3ccc(C)cc3c2s1,inactive: 88%
15,COc1ccc(/C=C(\C#N)c2nc3ccccc3n2C)c(OC)c1,active: 29%
16,O=S(=O)(c1ccccc1)c1nnn2c1nc(NCc1ccccc1)c1sccc12,inactive: 87%
17,COCCNC(=O)Cn1c(=O)n(CCCCCC(=O)Nc2ccccc2)c(=O)c2sccc21,inactive: 102%
18,O=C(NCc1cccs1)c1ccc(Cn2c(SCc3ccc(F)cc3)nc3cccnc32)cc1,inactive: 84%
19,Cc1ccc(Cl)cc1N1CCN(C(=O)CN2C(=O)CSc3c2c(C)nn3-c2ccccc2)CC1,inactive: 94%
20,COc1cccc(NC(=O)c2cnc(SCC(=O)N3CCOCC3)n(C)c2=O)c1,inactive: 120%
21,CCc1ccc2c(c1)-c1ccccc1S(=O)(=O)N2CC(=O)N1CCCCC1,inactive: 77%
22,COc1ccc(-c2cn3c(n2)sc2cc(C(=O)NCCc4ccc(OC)cc4OC)ccc23)cc1,inactive: 65%
23,NNC(=O)CNC(=O)c1ccc2c(c1)OCO2,inactive: 115%

row,SMILES,survival
1,CCOc1ccc(CNS(=O)(=O)c2ccc(-c3coc(C)n3)cc2)cc1OC,inactive: 81%
2,CCN(Cc1ccccc1)C(=O)c1sc2nc3n(c(=O)c2c1C)CCCC3,inactive: 80%
3,CCN(CC)CCCNC(=O)c1nn(-c2ccc(C)cc2)c(=O)c2c1c1ccccc1n2C,inactive: 85%
4,OC(COC(c1ccccc1)c1ccccc1)CN1CCCCC1 (stereo not given),inactive: 67%
5,CCCCN(C)CCCNC(=O)Cn1ncc2c3ccccc3n(Cc3cc(C)ccc3C)c2c1=O,inactive: 98%
6,O=C(O)COc1nsnc1N1CCOCC1,inactive: 78%
7,O=C(CN1CCOCC1)NC12CC3CC(CC(C3)C1)C2,inactive: 98%
8,CCC(=O)N1c2ccc(S(=O)(=O)CCC(=O)Nc3ccc(Br)c(C)c3)cc2CC1C (stereo not given),inactive: 72%
9,COc1ccccc1CNC(=O)c1cc2c(s1)-c1ccccc1OC2,inactive: 61%
10,CCc1ccc(S(=O)(=O)c2c(C(=O)c3ccccc3)cnc3ccc(CC)cc23)cc1,inactive: 70%
11,O=S(=O)(c1cccc(F)c1)N1CCC(Oc2ccc(-n3cnnn3)cc2)CC1,inactive: 79%
12,CCOCCCNC(=O)c1c(NC(=O)Cc2coc3ccc(C)cc23)sc2c1CCC2,inactive: 95%
13,CCCCc1nc2ccccc2c(C(=O)O)c1C,inactive: 75%
14,CC(C)c1ccc(OCC(O)CN2CCN(c3ccc(F)cc3)CC2)cc1 (stereo not given),inactive: 56%
15,CCOC(=O)c1c(-c2ccccc2)oc2cc(Br)c(OCC(N)=O)cc12,inactive: 79%
16,COc1ccccc1CN1CCC(CNC(=O)c2cnn(-c3ccc(Cl)cc3)c2C2CCN(C(=O)OC(C)(C)C)CC2)CC1,inactive: 113%
17,CCCCNS(=O)(=O)c1ccc2nc(-c3cccnc3)cc(C(=O)NCCOC)c2c1,inactive: 73%
18,COc1cccc(-c2nnc(SCC(=O)N3c4ccccc4Sc4ccccc43)o2)c1,active: 35%
19,Cc1ccccc1NC(=O)c1ccc(Cl)c(S(=O)(=O)N2CCCCCC2)c1,inactive: 132%
20,O=C(NCCCc1nc2ccccc2n1Cc1ccc(Cl)cc1Cl)c1ccco1,inactive: 58%
21,Cn1c(=O)[nH]c(=O)c2c1nc(CN1CCN(c3cccc(Cl)c3)CC1)n2Cc1ccccc1,inactive: 97%
22,COc1ccc(C(=O)N2c3ccc(C)cc3C(C)(c3ccccc3)CC2(C)C)cc1 (stereo not given),active: 25%
23,CCc1ccc(CNC(=O)c2c(C)oc3ncn(CC(C)C)c(=O)c23)cc1,inactive: 88%

row,SMILES,survival
1,COc1cc(Cl)c(C)cc1NC(=O)Cn1ncc2c3ccccc3n(Cc3ccccc3)c2c1=O,inactive: 83%
2,COc1ccc(CNC(=O)CCCn2c(=O)c3cccn3c3cccnc32)cc1,inactive: 106%
3,CCN(CC)CCCNC(=O)CN1N=C(c2ccc(OC)cc2)CCC1=O,inactive: 105%
4,CCOC(=O)c1c(C)sc(-c2c(-c3ccc(OC)c(F)c3)[nH]c3[nH]c(=O)[nH]c(=O)c23)c1O,inactive: 118%
5,CC1=C(C(=O)Nc2ccc(Cl)cc2)C(c2ccc(C(F)(F)F)cc2)n2nnnc2N1 (stereo not given),inactive: 64%
6,COc1ccc(-c2nc(SCC(=O)N3CCCCC3C)n[nH]2)cc1 (stereo not given),inactive: 130%
7,CCOC(=O)c1cc(-c2ccc(OC)cc2)n(CCC(=O)Nc2nc3ccc(OCC)cc3s2)c1C,inactive: 105%
8,Cc1cc(=O)[nH]c2c1c(=O)[nH]n2C1CC(C)N(C)CC1C (stereo not given),inactive: 112%
9,COC(=O)c1cnn(-c2ccc(C(=O)Nc3cc(OC)c(OC)c(OC)c3)cc2)c1N,inactive: 92%
10,Cc1ccc(CN(Cc2ccco2)C(=O)c2ccc(Cl)cc2)o1,inactive: 106%
11,CCc1ccc(-n2c(=O)c3c(C)c(C(=O)N(C)C)sc3n(Cc3ccccc3C#N)c2=O)cc1,inactive: 83%
12,CCc1cccc(C)c1Nc1c(-c2cccc(O)c2)nc2nc(C)cc(C)n12,inactive: 66%
13,CCC1CCCCN1C(=O)Cn1c(=O)cc(C(F)(F)F)c2c(C)nn(C)c21 (stereo not given),inactive: 71%
14,COc1ccc(NC(=O)CSc2nccn2Cc2ccco2)c(OC)c1,inactive: 122%
15,CC(=O)Oc1ccccc1C(=O)N1CCN(c2ccccc2F)CC1,inactive: 73%
16,O=C1c2[nH]nc(-c3ccccc3O)c2C(c2ccc(F)cc2)N1CCO (stereo not given),inactive: 78%
17,COc1ccc(OC)c(NC(=O)Cc2c(C(=O)O)n(C)c3ccc(C)cc23)c1,inactive: 104%
18,COc1ccc(-n2cc(C(=O)NCCc3ccc(C)cc3)c3ccccc3c2=O)cc1,inactive: 53%
19,NC(=O)C1CCCN(C(=O)Nc2c[nH]c3ccccc3c2=O)C1 (stereo not given),inactive: 93%
20,CC1CCCCN1C(=O)CSc1nc2ccccc2nc1Cc1ccccc1 (stereo not given),inactive: 76%
21,COC(=O)c1ccc(C2CC(=O)Nc3c2c(C)nn3-c2nc(C)cc(C)n2)cc1 (stereo not given),inactive: 65%
22,COc1ccc(CNC(=O)C2CCCCN2S(=O)(=O)c2ccc(F)cc2)cc1 (stereo not given),inactive: 95%
23,CCOc1c(CC2C(=O)Nc3ccc(Br)cc32)cccc1OC (stereo not given),inactive: 102%

row,SMILES,survival
1,Cc1nc(N2CCOCC2)c2c(C(=O)N3CCN(c4cc(Cl)ccc4C)CC3)c(C)oc2n1,active: 46%
2,O=C(CN1C(=O)C2CCCCN2c2ccc(C(=O)N3CCCC3)cc21)NCc1ccc(F)cc1 (stereo not given),inactive: 85%
3,CCOc1ccccc1CNc1ncnc2onc(-c3ccc(F)cc3)c12,inactive: 91%
4,CCCC(=O)Nc1nc2ccc(S(C)(=O)=O)cc2s1,inactive: 93%
5,CCN1CCC(N(Cc2ccc(F)cc2)C(=O)Nc2cc(C)ccc2C)CC1,inactive: 81%
6,Cc1cc(-c2ccc(S(=O)(=O)Nc3ccccc3C)cc2)on1,inactive: 95%
7,CCOC(=O)c1cc2c(ccn2C)n1CC(=O)NC(c1ccccc1)c1ccccc1,inactive: 97%
8,O=C(Nc1ccc(F)cc1)C1CCN(c2nc3ccccc3nc2C(F)(F)F)CC1,inactive: 118%
9,CCn1c(SC)nc2c([nH]c3ccccc32)c1=O,inactive: 67%
10,O=C(Cn1ccc2cc(S(=O)(=O)N3CCCC3)ccc21)NCc1ccc(Cl)cc1,inactive: 84%
11,Cc1cc(C)cc(NC(=O)CC(C)n2nc(C)cc2C)c1 (stereo not given),inactive: 74%
12,COc1ccc(CNC(=O)c2ccc3c(c2)N=C(C)c2c(C)ccc(C)c2S3)cc1,inactive: 82%
13,CCOC(=O)c1c(S(=O)(=O)N2CCC(C(=O)Nc3ccc(C)cn3)CC2)c(C)n(C)c1C,inactive: 101%
14,Cc1[nH]c(=O)[nH]c(=O)c1S(=O)(=O)Nc1cccc(Cl)c1C,inactive: 73%
15,CCOc1ccc(CNC(=O)Cn2nc(C)c3nn(-c4ccc(Cl)cc4)c(C)c3c2=O)cc1,inactive: 118%
16,COc1cc(-c2ccno2)ccc1S(=O)(=O)N1CCN(c2cccc(Cl)c2)CC1,active: -1%
17,COc1ccccc1NC(=O)c1sc2nc(-c3cc4cc(Cl)ccc4oc3=O)[nH]c(=O)c2c1C,active: 45%
18,Cc1ccc(CNC(=O)c2oc3ccc(S(=O)(=O)N4CCCC(C)C4)cc3c2C)cc1 (stereo not given),inactive: 51%
19,Cc1oc2ncnc(N3CCCCC3)c2c1C(=O)NCC1CCN(Cc2ccccc2F)CC1,inactive: 92%
20,Cc1cccc(NC(=O)c2ccccc2)n1,inactive: 93%
21,COc1ccc(NC(=O)C2=C(C)Nc3nc(SCc4ccc(C)cc4C)nn3C2c2cccc(OC)c2OC)cc1 (stereo not given),inactive: 80%
